This is an account of results in PubChem BioAssay AID488969 (Vanderbilt High Throughput Screening Facility, 2010).

In all, about 110,000 compounds were measured (“z-score”: median about -0.1, highest 2% from about 2 on). The list shows a part of the results. The source made the active and inactive calls.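 Rule for the calls: active = z-score in the third read window above 3 or below -3; inactive = the rest.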

For the experiment, the target named is Metabotropic glutamate receptor 8 (Rattus norvegicus) (UniProt P70579). As to the kind of experiment: rat mGluR8 modulators via GIRK flux, primary screen, cell-based, thallium flux, HTS (AID 488969). Conditions: HEK293 rat mGluR8, GIRK (G protein-gated inwardly rectifying potassium channel) thallium flux, FluoZin2; at 10 µM; stronger effect = higher value.
UniProt P70579, sequence (P70579 whole entry, looked up): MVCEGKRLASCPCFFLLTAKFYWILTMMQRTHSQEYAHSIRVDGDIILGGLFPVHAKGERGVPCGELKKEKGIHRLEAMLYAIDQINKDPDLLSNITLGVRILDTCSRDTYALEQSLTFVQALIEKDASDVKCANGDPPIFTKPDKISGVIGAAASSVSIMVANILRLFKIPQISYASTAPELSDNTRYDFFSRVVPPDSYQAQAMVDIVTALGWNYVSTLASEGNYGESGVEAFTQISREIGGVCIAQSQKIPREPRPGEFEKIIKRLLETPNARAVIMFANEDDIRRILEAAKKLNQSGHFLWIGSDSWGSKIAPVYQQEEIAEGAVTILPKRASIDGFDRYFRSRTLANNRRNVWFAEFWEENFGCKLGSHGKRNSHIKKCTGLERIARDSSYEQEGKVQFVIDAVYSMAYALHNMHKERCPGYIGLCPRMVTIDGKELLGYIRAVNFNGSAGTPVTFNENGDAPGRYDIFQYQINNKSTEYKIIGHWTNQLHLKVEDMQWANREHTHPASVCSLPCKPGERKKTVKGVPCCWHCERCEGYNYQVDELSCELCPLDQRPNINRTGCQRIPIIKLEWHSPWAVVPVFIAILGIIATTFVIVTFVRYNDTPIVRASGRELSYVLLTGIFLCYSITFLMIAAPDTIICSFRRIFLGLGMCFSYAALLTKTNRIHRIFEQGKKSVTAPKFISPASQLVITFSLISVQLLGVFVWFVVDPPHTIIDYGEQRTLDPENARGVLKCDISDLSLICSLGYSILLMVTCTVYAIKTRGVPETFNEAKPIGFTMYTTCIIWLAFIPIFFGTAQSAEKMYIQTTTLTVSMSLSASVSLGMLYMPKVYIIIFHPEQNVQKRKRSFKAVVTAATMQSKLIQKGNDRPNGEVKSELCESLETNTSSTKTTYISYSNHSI
The molecule `Cc1ccc2c(c1)=C/C(=C\c1c(O)[nH]c(=O)[nH]c1=O)C(=O)N=2` returned a z-score of -0.209.

Molecule `Nc1ccc(S(=O)(=O)N2CC3CC(C2)c2cccc(=O)n2C3)cc1` (stereo unspecified) registered a z-score of -0.29.

Molecule `CC(C)Cn1cc(C(=O)N2CCC3(CC2)OCCO3)c2c3ccccc3n(C)c2c1=O` showed a z-score of -0.259.

As for `CCOC(=O)C(NC(=O)CCl)(Nc1ccc(C(O)(C(=O)OCC)C(F)(F)F)cc1)C(F)(F)F` (stereo unspecified), the z-score is 0.218.

`C=Cn1ccnc1P(=S)(c1ccn(C)c1)c1nccn1C=C` registered a z-score of 1.8.

For `CC(NCc1cccc(Cl)c1Cl)C(O)c1ccccc1` (stereo unspecified), the z-score stood at 0.177.

As for `N#CCC(=O)NN1Cc2ccccc2C1=N`, the z-score was -0.155.

For the molecule `CCOP(=O)(OCC)C(NC(=O)c1ccc(C)cc1)=C(Cl)Cl`, the z-score is -0.254.

In turn, `CN1C(=O)/C(=C\c2ccc(N3CCCCC3)o2)C(=O)NC1=S` returned a z-score of -0.412.

`CCOP(=S)(OCC)c1ccc(N(C)C)cc1` displayed a z-score of -0.539.

`CCOc1ccc(N=Cc2c(O)n(C(C)(C)C)c(=O)[nH]c2=O)cc1` had a z-score of -0.283.

As for `CCc1nc2ccccc2c(=O)n1-c1ccccc1[N+](=O)[O-]`, the z-score was -0.229.

`CCOC(=O)C1=C(N)OC(C)=C(C(=O)OCCOC)C12C(=O)Nc1ccccc12` (stereo unspecified) came in with a z-score of 0.399.

Regarding `O=C1CC(=O)N(c2cccc(Cl)c2)C(=O)N1`, the z-score was -0.191.

On to `CN(C)CCc1nc2ccccc2c(=O)n1-c1ccccc1`, for which the z-score was -0.0106.

Turning to `O=[N+]([O-])c1ccccc1CNCCc1ccc(F)cc1`, the z-score is -0.191.

With `S=C1CN=C(c2ccccc2)c2cc(Cl)ccc2N1`, the z-score was active: 4.29.

The molecule `CC(C)CCP(=O)(O)c1ccccc1` returned a z-score of -0.0996.

As for `CCN(CC)CCN1Cc2ccccc2C1=N`, the z-score is 0.26.

With `O=C(Nc1ccc(F)cc1F)c1cccnc1Oc1cccc(C(F)(F)F)c1`, the z-score is -0.0465.

For `CCCC1=C(C(=O)OCC)C2(C(=O)Nc3ccc(C)cc32)C(C#N)=C(N)O1` (stereo unspecified), the z-score came out at 0.0382.

In the case of `CC(C)Oc1ccc(C2C(C#N)=C(N)Oc3c2c(=O)oc2ccccc32)cc1` (stereo unspecified), the z-score is -0.191.

Molecule `O=C(Nc1cccc(OC(=O)N2CCOCC2)c1)N1CCOCC1` displayed a z-score of 0.335.

Take `O=C(Cc1ccccc1)N1CCN(Cc2ccc([N+](=O)[O-])cc2)CC1`: the z-score is -0.111.

Regarding `CCN(CC)S(=O)(=O)c1ccc(C)c(NCC(=O)Nc2ccc(C#N)c(Cl)c2)c1`, the z-score is -0.264.

With `O=c1c2ccccc2nc(-c2ccco2)n1-c1ccccc1`, the z-score was determined as 0.771.

Turning to `CCN(CC)CCCN=Cc1c(O)n(-c2ccccc2F)c(=O)[nH]c1=O`, the z-score came out at 0.886.

`CCOC(=O)c1cc(C(O)(C(=O)OC)C(F)(F)F)c(/N=C/N(C)C)o1` (stereo unspecified) had a z-score of -0.0079.

Take `CC(C)c1ccc(OCC(=O)N2CCN(C)CC2)c(Br)c1`: the z-score was -0.292.

Take `CC(C)NS(=O)(=O)c1ccc(OCC(=O)N2CCN(Cc3ccc4c(c3)OCO4)CC2)c(Cl)c1`: the z-score was determined as 0.0778.

As for `CC(=O)c1ccc2c(c1)C1C(Cl)C(Sc3ccccc3[N+](=O)[O-])CC1C(c1ccccc1[N+](=O)[O-])N2` (stereo unspecified), the z-score was 1.22.

Take `CN1CCN(c2c[nH]c(=O)[nH]c2=O)CC1`: the z-score was -0.155.

Molecule `CCN(CC)CCNC(=O)c1c(O)c2ccccc2n(Cc2ccccc2)c1=O` returned a z-score of 0.0206.

In turn, `OC(c1ccccc1)(c1ccccc1)C1CCNCC1` came in with a z-score of 0.688.

On to `COc1ccc(CCn2c(O)c(/C=N/NC(=O)c3ccncc3)c(=O)[nH]c2=O)cc1OC`, for which the z-score is -0.155.

The molecule `CC1=NOC2(C)Nc3ncnn3C(c3ccccc3)C12` (stereo unspecified) had a z-score of 0.231.

`CCOP(=O)(OCC)C(c1ccccc1)N(C)C=O` (stereo unspecified) returned a z-score of -0.092.

`CCCCOc1ccc(CCN)cc1Cl`: the z-score was 0.62.

As for `CCC1CN(C)CCC1(OC(C)=O)c1ccccc1` (stereo unspecified), the z-score came out at 0.325.

In the case of `CCCCN1C(=O)NC(=O)/C(=C/c2cnc(SC)nc2)C1=O`, the z-score was -0.221.

With `C=CCNC(=O)c1c(N)n(CCN2CCOCC2)c2nc3ccccc3nc12`, the z-score was -0.367.

`C=CC1CN2CCC1CC2c1[nH]c2ccccc2c1CCO` (stereo unspecified) yielded a z-score of -1.53.

`CC(N)Cc1ccccc1Sc1ccc(O)cc1` (stereo unspecified) showed a z-score of 0.143.

For `COc1ccc(N2C(=O)CC(N3CCC(n4c(=O)[nH]c5ccccc54)CC3)C2=O)cc1` (stereo unspecified), the z-score is -0.14.

Regarding `CCc1ccc(-n2c(O)c(/C=N/NC(=O)c3ccncc3)c(=O)[nH]c2=O)cc1`, the z-score is -0.0293.

As for `O=c1c2ccccc2nc(-c2ccc(Cl)cc2Cl)n1-c1ccncc1`, the z-score is -0.348.

For `CCCCN1C(=O)NC(=O)C2(Cc3cc(C)ccc3N(C)C2)C1=O` (stereo unspecified), the z-score is -0.417.

For `COc1ccc(CCNCc2ccc(F)cc2)cc1OC`, the z-score is -2.07.

As to `COc1ccc(OC)c(N2C(=O)NC(=O)C(CCc3ccncc3)(CCc3ccncc3)C2=O)c1`, the z-score was -0.482.

As for `Cc1ccc(-c2nc3ccccc3c(=O)n2-c2ccncc2)cc1`, the z-score is -0.234.

Regarding `O=C(COc1ccccc1)N1CCN(C2CC3CCC2C3)CC1` (stereo unspecified), the z-score turned out to be 0.161.

`CC12CCC3C(CC=C4CC(O)CCC43C)C1C/C(=C\c1ccccc1F)C2=O` (stereo unspecified) showed a z-score of 0.264.

Regarding `CN1CCN(Cc2ccc(Br)s2)CC1`, the z-score was found to be 0.759.

In turn, `CCC(NC(=O)OC(C)(C)C)C(=O)Oc1cc(C)cc2oc(=O)c3c(c12)CCC3` (stereo unspecified) yielded a z-score of 0.373.

`CC(=NCCCN1CCOCC1)c1c(O)[nH]c(=O)[nH]c1=O`: the z-score is -0.225.

Molecule `COC(=O)C(C)Oc1cc(C)cc2oc(=O)c3c(c12)CCCC3` (stereo unspecified) yielded a z-score of -1.47.

On to `O=C(c1cc2ccccc2oc1=O)N1CCC2(CC1)OCCO2`, for which the z-score came to 0.602.

`COc1ccc(CCNC(C)CCc2ccc(OC)cc2)cc1` (stereo unspecified) registered a z-score of 0.803.

Consider `Cc1ccc(C2=NCC(=O)N(CC(=O)N3CCCCC3)c3sc(C)c(C)c32)cc1`, for which the z-score stood at 0.904.

The molecule `COc1ccc(-c2nc3ccccc3c(=O)n2-c2nccs2)cc1` yielded a z-score of -0.0572.

The molecule `Cc1cccc(OP(=O)(NCc2ccccc2)Oc2cccc(C)c2)c1` registered a z-score of -0.0782.

Take `COc1ccc(OCC(=O)N2CCN(Cc3c[nH]c4ccccc34)CC2)cc1`: the z-score amounted to 0.374.

`CCCC(C)C1(CC)C(=O)NC(=Nc2ccccc2)NC1=O` (stereo unspecified): the z-score is -0.154.

`CCCC[N+]12CCC(CC1)C(=C(c1ccccc1)c1ccccc1)C2` yielded a z-score of -0.0375.

Molecule `CC1(C)N=C(c2ccccc2)[C@@H]2C(c3ccc([N+](=O)[O-])cc3)N21` (stereo partly specified) returned a z-score of -0.25.

In turn, `NC1=Nc2ccccc2Oc2ccccc21` displayed a z-score of -0.394.

As for `O=C(CNC(=O)c1cccc(Cl)c1)Nc1ccc(Br)cc1C(=O)c1ccccc1`, the z-score is 0.836.

With `Cc1ccc(C2NC(=S)NC(c3ccc(C)cc3)C23C(=O)NC(=O)NC3=O)cc1` (stereo unspecified), the z-score is -0.0146.

Consider `Cc1cccnc1-n1c(-c2ccccc2)nc2ccccc2c1=O`, for which the z-score turned out to be 0.282.

Take `CCOC(=O)Cn1cc(C(=O)c2ccccc2F)c2ccccc21`: the z-score turned out to be 0.231.

As for `CCOC(=O)C1=C(N)OC2=C(C(=O)CCC2)C12C(=O)Nc1ccccc12` (stereo unspecified), the z-score is -0.00188.

As for `COCCCn1c(-c2ccc(OC)cc2)cc(C(=O)NC2CCCCCCC2)c1C`, the z-score is -0.648.

The molecule `CN(C)CCCN=Cc1c(O)n(CCc2ccc(F)cc2)c(=O)[nH]c1=O` came in with a z-score of -0.124.

`CCN(CC)c1ccc(N=Cc2c(O)n(CCC3=CCCCC3)c(=O)[nH]c2=O)cc1` displayed a z-score of -0.238.

As to `Cc1ccc(N2CCN(CCc3ccccc3)CC2)cc1`, the z-score is -0.159.

`CC12CN3CN(C1)CC(c1ccccc1)(C3)C2=O` had a z-score of -0.165.

Turning to `CCOc1c(P(=S)(N(C)C)N(C)C)c(C)nn1-c1ccccc1`, the z-score was found to be 0.0269.

`CCOC(=O)C1SC2(C(F)(F)F)CC1(O)c1c(C)cc(C)nc1O2` (stereo unspecified) registered a z-score of -0.0267.

As to `CN(C)c1ccc(C(=O)c2ccc(N(C)C)cc2)cc1`, the z-score is -0.127.

Take `CCCCn1c(O)c(C(C)=Nc2ccc(C(=O)O)cc2)c(=O)[nH]c1=O`: the z-score is -0.586.

Turning to `O=C(COc1ccccc1)c1cn(Cc2ccccc2)c2ccccc12`, the z-score was -0.418.

The molecule `O=C(NC1(C(F)(F)F)Oc2ccccc2O1)N1CCC2(CC1)OCCO2` displayed a z-score of 0.664.

As to `Cc1nn(Cc2ccccc2Cl)c(Cl)c1C(=O)OC(C(=O)NC(N)=O)C(C)C` (stereo unspecified), the z-score is 0.0386.

In turn, `COc1cc(NC(=O)CN2C3CCC2CC(O)(c2cccnc2)C3)cc(OC)c1` (stereo unspecified) gave a z-score of 0.0315.

As to `COc1cc(C(c2c(C)[nH]n(-c3ccccc3)c2=O)c2c(C)[nH]n(-c3ccccc3)c2=O)cc(OC)c1OC`, the z-score is -0.358.

The molecule `O=C(c1cccs1)c1cn(Cc2ccccc2Cl)c2ccccc12` yielded a z-score of -0.523.

Molecule `COC(=NC1CCCCC1)C(O)c1c[nH]c2ccccc12` (stereo unspecified) displayed a z-score of -0.119.

Molecule `C=CCn1c(O)c(C=NCCCOc2ccc(CC)cc2)c(=O)[nH]c1=S` registered a z-score of 0.034.

Turning to `O=C(Cc1ccccc1)Oc1ccc(N2C(=O)C3CCCCC3C2=O)cc1` (stereo unspecified), the z-score came out at 0.168.

Regarding `CC(=O)Nc1ccccc1C(=O)OCc1ccc(C(=O)c2ccccc2)cc1`, the z-score is -0.427.

For `COCCOC(=O)c1c(N)n(Cc2ccco2)c2nc3ccccc3nc12`, the z-score was active: -3.61.

For `CC(=O)c1c(O)n(C)c(=S)n(-c2ccccc2)c1=O`, the z-score was -0.388.

Turning to `O=c1cc(CN2CC=C(c3ccccc3)CC2)c2c(ccc3ccccc32)o1`, the z-score is -0.0659.

For the molecule `CN1CCCC(C(=O)c2ccccc2)C1` (stereo unspecified), the z-score is -0.251.

As to `CCCCCCN=Cc1c(O)n(C)c(=O)n(C)c1=O`, the z-score is -0.947.

`O=c1[nH]c(=O)n(CCc2ccccc2)c(O)c1C=NCCN1CCNCC1` yielded a z-score of -0.552.

In turn, `CCN(CC)P(=O)(NC(=O)C(Cl)(Cl)Cl)N(CC)CC.[Cl-].[Cl-].[Cl-].[Nd+3]` returned a z-score of 0.056.

As for `Cn1c(O)c(C=NCCN2CCNCC2)c(=O)n(C)c1=O`, the z-score was -0.337.

As to `COCCOC(=O)C1=C(C)OC(N)=C(C(=O)OC)C12C(=O)Nc1ccccc12` (stereo unspecified), the z-score is -0.186.

With `CN1CCN(c2nccc3c2ncn3C)CC1`, the z-score came to 0.514.

Regarding `CCN(CC)c1ccc(CN2CC=C(c3ccc(F)cc3)CC2)cc1`, the z-score came out at 0.0485.

`Cc1nn(C)c(C)c1/C=C1/CC2C3CC=C4CC(O)CCC4(C)C3CCC2(C)C1=O` (stereo unspecified): the z-score is -0.724.

Molecule `Cc1nc2sccc2c(=O)n1-c1ccccc1Cl` came in with a z-score of 0.0438.

As to `CC(=O)Nc1ccc2c(c1)CC1(C(=O)N(C)C(=O)N(C)C1=O)C1CCCN21` (stereo unspecified), the z-score was determined as 0.535.

With `CC1CCN(S(=O)(=O)c2ccc(NN=C(C#N)C#N)cc2)CC1`, the z-score was -1.69.

As to `OC1(CN2CCOCC2)C2CC3CC(C2)CC1C3` (stereo unspecified), the z-score turned out to be 0.047.

Molecule `CSC(=Nc1ccccc1)c1c(O)n(C)c(=O)n(C)c1=O` gave a z-score of -0.0557.

In turn, `CN(C)C(Cc1ccccc1)C(=O)c1ccccc1` (stereo unspecified) registered a z-score of -0.28.

In turn, `Cn1c(=O)cc(OCCCC(=O)N2CCC3(CC2)OCCO3)c2ccccc21` came in with a z-score of -0.0413.

The molecule `COc1cccc(CN2CCCCC2c2cccnc2)c1` (stereo unspecified) registered a z-score of -0.0952.

As for `CCC(=NCCc1ccccc1)c1c(O)n(C2CCCCC2)c(=O)[nH]c1=O`, the z-score is -0.591.
